# Reference: PMC4336329 (PLoS ONE, 2015)
# Out of some 310,000 compounds screened, about 14,000 (4.5%) showed an effect of 50% or more. Effects have a minus sign here. The list shows a part of the results.
# Biological target: human ether-à-go-go-related gene (hERG) potassium channel (human, UniProt Q12809)
# Assay: primary screen, population patch clamp on CHO cells stably expressing hERG
# 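Note: peak tail current of the secondary pulse compared with the same well before compound.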
# Chain of human ether-à-go-go-related gene (hERG) potassium channel (Q12809 whole entry, looked up): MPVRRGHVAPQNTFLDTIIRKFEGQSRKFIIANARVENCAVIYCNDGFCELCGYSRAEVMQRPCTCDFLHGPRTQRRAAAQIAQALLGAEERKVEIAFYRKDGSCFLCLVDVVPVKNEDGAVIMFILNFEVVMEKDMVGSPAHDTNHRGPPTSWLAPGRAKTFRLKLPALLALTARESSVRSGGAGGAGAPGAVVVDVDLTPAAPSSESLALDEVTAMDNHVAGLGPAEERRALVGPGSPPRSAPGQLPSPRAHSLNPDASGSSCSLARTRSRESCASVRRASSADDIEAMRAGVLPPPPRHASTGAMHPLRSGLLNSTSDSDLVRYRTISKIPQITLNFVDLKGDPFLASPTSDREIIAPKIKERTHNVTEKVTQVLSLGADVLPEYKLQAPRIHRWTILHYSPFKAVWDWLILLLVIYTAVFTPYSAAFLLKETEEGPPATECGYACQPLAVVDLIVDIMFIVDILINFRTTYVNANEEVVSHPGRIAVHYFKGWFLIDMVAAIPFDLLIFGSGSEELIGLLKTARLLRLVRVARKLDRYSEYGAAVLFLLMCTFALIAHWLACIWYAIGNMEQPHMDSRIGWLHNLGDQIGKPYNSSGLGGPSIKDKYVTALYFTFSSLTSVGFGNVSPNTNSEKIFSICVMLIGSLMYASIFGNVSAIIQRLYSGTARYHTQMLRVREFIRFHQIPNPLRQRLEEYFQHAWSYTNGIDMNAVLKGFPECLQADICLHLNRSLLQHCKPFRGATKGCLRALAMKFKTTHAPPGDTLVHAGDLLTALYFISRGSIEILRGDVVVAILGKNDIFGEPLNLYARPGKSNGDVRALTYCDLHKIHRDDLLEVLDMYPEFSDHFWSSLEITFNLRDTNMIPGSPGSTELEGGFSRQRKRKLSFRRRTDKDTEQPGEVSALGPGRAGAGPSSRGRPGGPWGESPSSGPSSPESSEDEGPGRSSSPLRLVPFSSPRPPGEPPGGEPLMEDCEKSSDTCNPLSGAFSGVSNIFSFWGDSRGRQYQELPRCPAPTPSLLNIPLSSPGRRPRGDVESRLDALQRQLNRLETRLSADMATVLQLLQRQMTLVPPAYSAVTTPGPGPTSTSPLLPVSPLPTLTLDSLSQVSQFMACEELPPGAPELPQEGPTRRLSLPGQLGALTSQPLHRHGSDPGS
row,Compound,"hERG current change (%, negative = inhibition) at 10uM [%]"
1,Cc1nc(S(=O)(=O)c2ccc(Cl)cc2)nc2c1CCC2,-5.35
2,CN(Cc1ccccc1Br)C(=O)CSc1nnnn1C1CC1,-8.75
3,CC(C)c1onc(C(=O)N2CCN(C(c3ccccc3)c3ccccc3)CC2)c1[N+](=O)[O-],13.6
4,COc1cccc(NS(=O)(=O)CC23CCC(CC2=O)C3(C)C)c1 (centres unmarked),8.25
5,COc1cc(-c2nnc(-c3ccccc3)o2)cc(OC)c1OC,-14.7
6,COc1ccccc1CNn1c(-c2cccc(C)c2)nc2ccccc2c1=O,-11
7,CCOC(=O)CSC1=C(C#N)C(c2ccc(C)cc2)C2=C(CCCC2=O)N1 (centres unmarked),-22.1
8,Cc1cc(NC(=O)c2ccccc2F)cc(C)c1OCC(=O)N1CCOCC1,-1.38
9,Cc1cc(NC(=O)COc2ccc3ccccc3c2)no1,12.3
10,CC1(C)CC(=O)C=C(NCc2cccs2)C1,-11.8
11,COc1ccccc1NC(=O)COc1ccc2ccccc2c1,4.02
12,CCOC(=O)Cn1c(S(=O)(=O)Cc2ccc(Cl)cc2)nc(-c2ccccc2)c1-c1ccccc1,-3.38
13,CCOC(=O)N1CCC(NC(=S)Nc2ccc3nc(N4CCN(CC)CC4)cc(C)c3c2)CC1,17.6
14,CC(=O)c1c(C)[nH]c(C(=O)OCCOc2ccccc2)c1C,-11.5
15,CCn1nc(C(=O)OCC(=O)N2CC(=O)Nc3ccccc32)c2ccccc2c1=O,-0.7
16,COC(=O)c1ccc(NS(=O)(=O)N(C)C)cc1,0.423
17,COc1ccc(NC(=O)NCc2ccncc2)c(OC)c1,2.58
18,COc1cc2cc(CCOC(=O)CCCC(=O)O)oc(=O)c2cc1OC,16.5
19,Cc1ccc(-n2cnc3cc(NCc4cccs4)ccc32)cc1,-14.4
20,CN(C)c1ccc(C(=S)NCc2ccco2)cc1,15
21,CN(C)c1oc(-c2ccco2)nc1C#N,-14.1
22,O=C(c1cc(F)ccc1F)C1CCCN(C(=O)CCN2CCCCO2)C1 (centres unmarked),15

row,Compound,"hERG current change (%, negative = inhibition) at 10uM [%]"
1,COc1ccc(C/C(C)=N/NS(=O)(=O)c2ccc(Br)cc2)cc1,-14.9
2,Cc1cc(NC(=O)CN2CCC(O)(c3cccc(F)c3)CC2)no1,-1.66
3,Cc1c(NC(=O)c2c(N)n(-c3ccccc3)c3nc4ccccc4nc23)c(=O)n(-c2ccccc2)n1C,-23.1
4,Cc1cn[nH]c1.Cl,4.39
5,CN(C)/C(=N\S(=O)(=O)c1ccccc1)c1ccc(Cl)cc1,14.3
6,O=C(NCC(=O)N(Cc1ccccc1)C(C(=O)NC1CCCC1)c1ccncc1)c1ccco1 (centres unmarked),5.71
7,COc1ccc(NC(=O)c2ccc(S(=O)(=O)N3CC(C)CC(C)C3)cc2)cc1S(N)(=O)=O (centres unmarked),25.2
8,CN(CC(=O)Nc1cc(S(=O)(=O)N2CCOCC2)ccc1Cl)C1CCS(=O)(=O)C1 (centres unmarked),18.7
9,Cc1cc(C(=O)NNC(=O)CN2C(=O)NC(C)(c3ccccc3)C2=O)c(C)o1 (centres unmarked),4.77
10,O=C(CCNC(=O)Cn1ccc2ccccc2c1=O)NCCN1CCN(c2cccc(Cl)c2)CC1,-7.83
11,COc1ccc(OC)c(NC(=O)COC(=O)CN(C)S(=O)(=O)c2ccc(C)cc2)c1,-37.1
12,CC1CCCCC1NC(=O)CN1C(=O)NC(C)(c2cccc(Br)c2)C1=O (centres unmarked),2.42
13,COC1CCN(C(=O)C2CCC(=O)N(C3CCCCCC3)C2)CC1 (centres unmarked),19.1
14,O=C(CSC1=NCCS1)NC(c1ccccc1)c1ccccc1,17.1
15,CN1C(=S)SC(N2OC3C(=O)N(c4ccccc4)C(=O)C3C2c2ccc(Cl)cc2)C1(C)C (centres unmarked),0.687
16,COc1cccc(C(=O)NCCS(=O)(=O)NCC2CCCO2)c1 (centres unmarked),10.8
17,Cc1ccc(CNC(=O)CN(C(=O)C2(C)CC(=O)N=C3C=CC=CN32)c2ccccc2)cc1 (centres unmarked),28.4
18,Cc1ccc(-c2c(C(=O)NCc3ccc(F)cc3)oc(=O)c3ccccc23)cc1,-13
19,COc1ccccc1NC(=O)CCNS(=O)(=O)c1ccc2c(c1)CC(C)N2C(=O)C1CC1 (centres unmarked),17.6
20,CN1C(=O)C(O)(c2sc(N)nc2-c2ccccc2)c2ccccc21 (centres unmarked),2.39
21,Cc1ccc(NCc2nnc(SCC(=O)N3c4ccccc4Sc4ccccc43)o2)c(C)c1,-0.533
22,CC(C)(CCl)C(=O)Nc1ccc(OC(F)(F)F)cc1,-24.7
